Laboratory results: PubChem BioAssay AID686979 (National Center for Advancing Translational Sciences (NCATS), 2013)
The whole screen tested about 420,000 compounds, of which about 50,000 (12%) were called active. The shares of active, inactive and inconclusive entries below differ from those in the screen. Calls follow the shape of the dose curve; as a rule, active = well fitted inhibition curve with a large enough effect; inconclusive = small, poorly fitted or top-dose-only effect; inactive = flat fitted curve, though single readings scatter. No potency is given beside an inconclusive call; the fits are too rough.

Assay: qHTS for Inhibitors of human tyrosyl-DNA phosphodiesterase 1 (TDP1): qHTS in cells in presence of CPT; also: nearly all actives have a fitted effect of over 55% in size
Conditions: chicken DT40 Tdp1-/-;hTDP1 cells + 20 nM CPT, ATP luminescence, 48 h; activity change, negative = growth inhibition: at 46.2 µM (top of the series) unless noted
Outline: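 Chicken DT40 Tdp1-/- cells complemented with human TDP1, 400 cells/well, exposed to compounds plus 20 nM camptothecin for at least 48 h at 37 C; viability read as ATP content by CellTiter-Glo luminescence.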
% is scaled to controls: 0 for no effect and ±100 for the full control effect; potency is read from the fitted curve at half-maximal effect; tags tell the direction and shape of the fitted curve.

Row | SMILES | Potency | activity change, negative = growth inhibition
1 | NC(=O)c1cccc(-c2ccnc3c2CC(C(=O)Nc2cccc(C(F)(F)F)c2)O3)c1 (stereo not drawn) | active: 18.4 µM | –
2 | Cc1ccc2occ(CN3CCOc4ccc(C(C)(O)COc5ccccc5)cc4C3)c(=O)c2c1 (stereo not drawn) | – | inactive: 3.63% [at 9.04 µM]
3 | CCC(Oc1nc2ccccc2nc1-c1ccccc1NC(C)=O)C(=O)c1ccccc1 (stereo not drawn) | inconclusive [inhibitor, single point] | –
4 | CCN1CCN(C2CCCCC2NS(=O)(=O)c2ccc(Cl)cc2)CC1 (stereo not drawn) | inconclusive [inhibitor, single point] | –
5 | O=[N+]([O-])c1ccc(Nc2nc(N/N=C/c3cccc(F)c3)nc(N3CCCC3)n2)cc1 | active: 6.51 µM | –
6 | CC1=C(C(=O)N(C)C)CC(CC(=O)NC(c2ccccc2)c2ccccc2)C(=O)N1CCC1=CCCCC1 (stereo not drawn) | inconclusive [inhibitor, single point] | –
7 | NC(=S)NN=Cc1cc(-c2cccc(N)c2)ccn1 | active: 3.66 µM | –
8 | O=S(=O)(Nc1ccccn1)c1ccc(Oc2ccccc2)cc1 | – | inconclusive: -30.2% [inhibitor]
9 | COc1ccc(-c2ccc(C)cc2)cc1[C@H]1[C@@H]2C=CCC[C@@]2(C)C(=O)N1Cc1ccccc1 | inconclusive [inhibitor, single point] | –
10 | CCOC(=O)N1CCN(C(=O)C2CCN(S(=O)(=O)c3cc(Cl)ccc3OCC)CC2)CC1 | inactive | –
11 | Cc1ccc(NC(=O)Nc2nnc(SCC(=O)N(C(C)C)C(C)C)s2)cc1 | active: 18.4 µM | –
12 | CCOC(=O)c1sc2ccccc2c1S(=O)(=O)Nc1ccc(OC)c(Cl)c1 | inconclusive [inhibitor, single point] | –
13 | COC(=O)c1ccc(OCC(=O)Nc2ccccc2C(=O)NC2CC2)cc1 | inconclusive [inhibitor, single point] | –
14 | CCOc1ccc(NC(=O)Nc2nnc(N3CCCCC3C)s2)cc1 (stereo not drawn) | active: 23.1 µM | –
15 | COc1cccc(/C=N/NC(=O)c2ccncc2)c1OC(=O)c1ccc(Br)cc1 | inconclusive [inhibitor, single point] | –
16 | CN(C)CCCNC(=O)c1cc2sc3ccccc3c2s1 | inconclusive [inhibitor, single point] | –
17 | CC(OC(=O)c1cccc(-n2cnnn2)c1)C(=O)NC1(C#N)CCCCC1 (stereo not drawn) | inactive | –
18 | CCOC(=O)c1c(NC(=O)Nc2ccc(F)cc2)sc(C(=O)N(C)C)c1C | inconclusive [inhibitor, full curve] | –
19 | Cc1ccccc1Cn1nnc2sc3c(c2c1=O)CCCC3 | inconclusive [inhibitor, single point] | –
20 | Cc1cc(N2CCN(C(C(=O)NC3CCCC3)c3ccco3)CC2)c2ccccc2n1 (stereo not drawn) | active: 20.6 µM | –
21 | COc1ccc(Oc2ncc3nc(-c4ccc(Cl)cc4)c(=O)n(CCC#N)c3n2)cc1 | inconclusive [inhibitor, single point] | –
22 | C=CCn1c(C)cc(C(=O)COC(=O)c2ccc(N)c([N+](=O)[O-])c2)c1C | active: 18.4 µM | –
23 | COc1cc(C(=O)NNC(=O)CCOc2ccccc2C)cc(OC)c1OC | inactive | –
24 | Cc1ccccc1C(=O)N1CCC(n2nccc2NC(=O)CCOc2ccccc2)CC1 | inconclusive [inhibitor, single point] | –
25 | COc1ccc(/C=N/N2CCOCC2)cc1Cn1cc([N+](=O)[O-])cn1 | inactive | –

Row | SMILES | Potency | activity change, negative = growth inhibition
26 | COc1ccc(C(=O)N/N=C2\CCS(=O)(=O)c3ccc(F)cc32)cc1OC | active: 18.4 µM | –
27 | COc1ccc(-c2nnn(CC(=O)N(Cc3ccc(F)cc3)C(C(=O)NC3CCCC3)c3ccc(F)cc3)n2)cc1 (stereo not drawn) | active: 20.6 µM | –
28 | CCOc1cc(S(=O)(=O)NCc2ccco2)c(OCC)cc1-n1cnnn1 | inactive | –
29 | CN(C)c1ncc(S(=O)(=O)c2ccc(Cl)cc2)c(-c2ccc(Cl)cc2Cl)n1 | inactive | –
30 | O=C(COC(=O)CCC1CCCC1)Nc1ccc(F)cc1 | inactive | –
31 | CCN(CC(=O)Nc1ccc2c(c1)CCC2)Cc1nc2ccccc2c(=O)[nH]1 | active: 3.66 µM | –
32 | O=C(O)c1nnn(-c2cc(C(F)(F)F)cc(C(F)(F)F)c2)c1-c1ccccc1 | inactive | –
33 | O=C(COc1ccccc1F)Nc1nnc(SCc2cc(=O)n3ccccc3n2)s1 | inactive | –
34 | CCOC(=O)c1cc2c(=O)n3ccccc3nc2n(CC2CCCO2)c1=NC(=O)c1cccc(C)c1 (stereo not drawn) | active: 5.17 µM | –
35 | COc1ccc(F)cc1-c1cc(NC=O)c2ncc(-c3cc(OC)c(OC)c(OC)c3)n2c1 | active: 2.31 µM | –
36 | Cc1cc(C)nc(/N=C2\NC(=O)CC(C(=O)O)N2c2ccc(C)c(C)c2)n1 (stereo not drawn) | inconclusive [inhibitor, single point] | –
37 | O=C(O)c1ccc(N2C(=O)C3C4c5ccccc5C(Br)(c5ccccc54)C3C2=O)cc1 (stereo not drawn) | inactive | –
38 | Cc1ccc(/C=C/C(=O)c2ccccc(=O)c2O)c(C)c1 | active: 14.6 µM | –
39 | CCOC(=O)N1CCN(C(=O)C[C@@H]2C[C@@]3(C(=O)OCC)CCCC=C3N(Cc3ccc4c(c3)OCO4)C2=O)CC1 | inconclusive [inhibitor, single point] | –
40 | COc1ccc(OC)c(N(CC(=O)NCCc2ccc(OC)c(OC)c2)S(=O)(=O)c2ccccc2)c1 | inconclusive [inhibitor, single point] | –
41 | CC(O)(c1cccc(F)c1)c1nc(-c2cccc(C#N)c2)cs1 (stereo not drawn) | inconclusive [inhibitor, single point] | –
42 | C=C1C[C@@H]2C[C@@H]2CN(S(=O)(=O)c2ccc(C)cc2)[C@@H]1COCc1ccccc1 | active: 8.2 µM | –
43 | O=C(NCc1nnnn1-c1ccc(F)c(F)c1)C(=O)c1c[nH]c2ccccc12 | inactive | –
44 | CC(NCC1(N2CCOCC2)CCCCC1)C(=O)Nc1ccc(Cl)cc1Cl (stereo not drawn) | inconclusive [inhibitor, single point] | –
45 | CCCNC(=O)c1ccc(-c2nc3ccccc3s2)s1 | inconclusive [inhibitor, single point] | –
46 | Brc1ccccc1OCCCCn1cnc2ccccc21 | active: 4.11 µM | –
47 | COc1ccc(-n2cc(-c3ccccc3)c3c(N4CCCC(C)C4)ncnc32)cc1 (stereo not drawn) | active: 16.4 µM | –
48 | COc1ccc2[nH]c(C)c(CCNC(=S)Nc3cc(C)cc(C)c3)c2c1 | inconclusive [inhibitor, partial curve, poor fit] | –
49 | Cc1[nH][nH]c(=O)c1C(c1cc2c(cc1Br)OCO2)c1c(C)[nH][nH]c1=O | inconclusive [inhibitor, single point] | –
50 | CCc1nc2ccc(C(=O)NCc3ccccc3C)cc2nc1CC | inconclusive [inhibitor, single point] | –

Row | SMILES | Potency | activity change, negative = growth inhibition
51 | Cc1cc2c(cc1C)N1C(=O)c3cc4ccccc4cc3NC(=O)C1C(=O)N2 (stereo not drawn) | inconclusive [inhibitor, single point] | –
52 | COc1ccc(CNc2ncnc3sccc23)cc1OC | active: 8.2 µM | –
53 | Cn1cc(CCCC(=O)NCc2cccc(Br)c2)c2ccccc21 | inconclusive [inhibitor, single point] | –
54 | Cc1csc(NC(=O)CSc2nnc(Cc3cccn3C)n2CCc2ccccc2)n1 | inconclusive [inhibitor, single point] | –
55 | Cc1ccc(C(O)c2nc3ccccc3n2C(C)C)cc1 (stereo not drawn) | inconclusive [inhibitor, single point] | –
56 | CC(=O)CC1c2cc(F)ccc2C=C(c2ccsc2)N1c1ccc(C#Cc2cncn2C)cc1 (stereo not drawn) | inconclusive [inhibitor, single point] | –
57 | COc1ccc(C(=O)NCCc2csc(-c3ccc(Cl)cc3)n2)cc1 | inconclusive [inhibitor, partial curve] | –
58 | CCOC(OCC)c1cc2ccccc2cn1 | inactive | –
59 | CCOC(=O)c1ccc(NC(=S)NCCc2ccccc2)cc1 | inconclusive [inhibitor, single point] | –
60 | CC/C(C)=N/N1C(=O)c2ccccc2NC1(C)CC (stereo not drawn) | inactive | –
61 | O=C(O)C1CCCCC1C(=O)NCc1ccc(Cl)c(Cl)c1 (stereo not drawn) | inconclusive [inhibitor, single point] | –
62 | CCCOc1ccc(Cl)cc1/C=C1/C(=O)ON=C1C | active: 29.1 µM | –
63 | COC(=O)C1CCN(C(=O)COC(=O)/C=C/c2ccc(O)c(OC)c2)CC1 | inactive | –
64 | CCN(C(=S)NC(=O)CCc1ccccc1)c1ccccc1 | – | inconclusive: -32.6% [inhibitor]
65 | COc1cccc(NC(=O)c2ccc3snnc3c2)c1 | inactive | –
66 | CC(C)CNC(=S)NNC(=O)c1ccco1 | inactive | –
67 | Cn1c(SCc2ccc(Br)cc2)nc2c(c1=O)SCC2 | active: 18.4 µM | –
68 | CCC(=O)N1CCc2cc(S(=O)(=O)NCCN3CCC(C)CC3)ccc21 | inconclusive [inhibitor, partial curve, poor fit] | –
69 | CCC(=O)C1=C(c2ccccc2)N(C(=O)CC)n2c(nnc2-c2ccccc2)S1 | inconclusive [inhibitor, single point] | –
70 | CCOc1ccc(NC(=S)NC23CC4CC(CC(C4)C2)C3)cc1 | inconclusive [inhibitor, single point] | –
71 | Cc1ccc(N(CC(=O)Nc2ccc(F)cc2F)S(=O)(=O)c2cccs2)cc1 | inactive | –
72 | CN=C(Nc1ccc(Br)cc1)SC1CC(=O)N(c2ccc(OC)cc2)C1=O (stereo not drawn) | inconclusive [inhibitor, single point] | –
73 | O=C(NCc1ccc(F)cc1)c1cc(C(=O)C2CC2)c[nH]1 | inconclusive [inhibitor, single point] | –
